Results are given in words; binding and its absence hold for the method and conditions named. In cells and extracts the contact can be indirect. Some results given as binding are weak or reduced against the parent protein; the word gives no strength. For some assays here: Tags and fused reporters may be left off the sequences shown.
Columns and labels:
[1] = target: T1, His-Flag-RPRD1A (UniProt Q96P16); assay: co-IP; His-Flag-RPRD1A or His-Flag-p62 expressed with HA-tagged TRIM21 full-length or truncation mutants in HEK293T cells for 48 h; lysates precipitated with His-tag antibody
T1 sequence: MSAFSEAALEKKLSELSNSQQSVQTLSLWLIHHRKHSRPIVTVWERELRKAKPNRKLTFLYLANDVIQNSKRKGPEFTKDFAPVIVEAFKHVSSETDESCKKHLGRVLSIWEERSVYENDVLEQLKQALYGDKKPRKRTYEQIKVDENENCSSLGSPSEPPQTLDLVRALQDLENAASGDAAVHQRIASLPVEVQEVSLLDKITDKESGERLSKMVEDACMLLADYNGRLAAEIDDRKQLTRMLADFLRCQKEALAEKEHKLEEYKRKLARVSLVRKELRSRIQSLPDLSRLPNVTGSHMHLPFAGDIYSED

Sequences of proteins named here, by UniProt entry; tags and fusion partners are left off. A change or cut given only in a name is not applied to a line headed by its entry. A line that says so, or that is headed by a name, gives the form on record, which may keep a tag or linker.
UniProt P19474: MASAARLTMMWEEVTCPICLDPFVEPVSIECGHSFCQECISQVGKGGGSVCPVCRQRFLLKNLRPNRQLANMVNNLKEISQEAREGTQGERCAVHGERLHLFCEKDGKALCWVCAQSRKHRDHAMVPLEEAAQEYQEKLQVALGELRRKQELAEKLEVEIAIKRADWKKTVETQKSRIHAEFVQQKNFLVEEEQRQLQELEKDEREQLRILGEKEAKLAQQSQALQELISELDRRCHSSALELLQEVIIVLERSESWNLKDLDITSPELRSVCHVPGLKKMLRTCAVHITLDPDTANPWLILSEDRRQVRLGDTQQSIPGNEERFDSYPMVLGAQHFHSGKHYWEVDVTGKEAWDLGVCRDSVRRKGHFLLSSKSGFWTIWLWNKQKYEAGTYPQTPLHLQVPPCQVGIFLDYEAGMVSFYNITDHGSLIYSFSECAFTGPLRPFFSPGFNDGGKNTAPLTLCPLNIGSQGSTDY
HA-TRIM21Δ287-334 (P19474, form named): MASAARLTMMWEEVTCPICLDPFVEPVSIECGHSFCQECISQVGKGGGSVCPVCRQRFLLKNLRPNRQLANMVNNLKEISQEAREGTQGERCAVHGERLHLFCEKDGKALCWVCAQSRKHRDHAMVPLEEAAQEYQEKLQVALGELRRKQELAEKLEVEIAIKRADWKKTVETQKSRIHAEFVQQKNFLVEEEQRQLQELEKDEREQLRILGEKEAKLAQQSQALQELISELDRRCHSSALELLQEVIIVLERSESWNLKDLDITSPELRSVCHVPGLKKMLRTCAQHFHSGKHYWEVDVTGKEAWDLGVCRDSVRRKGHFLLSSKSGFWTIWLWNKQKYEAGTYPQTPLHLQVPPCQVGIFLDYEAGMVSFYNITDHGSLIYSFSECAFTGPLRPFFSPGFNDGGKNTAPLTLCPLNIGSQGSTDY

[2] = target: T2, p15INK4b-related sequence/regulation of nuclear pre-mRNA domain-containing protein 1A (RPRD1A) (human (endogenous in MHCCLM3)) (UniProt Q96P16); assay: co-IP; endogenous proteins in MHCCLM3 lysates (RIPA buffer); 2 ug antibody (RPRD1A, TRIM21 or p62) for 8 h at 4 C, protein A/G Plus-Agarose for 4 h, western blotting; TRIM21 with p62 also under RPRD1A knockdown or overexpression (Fig. 5F, G)
T2 sequence: T1 sequence

Substance	binding [1]	binding [2]
HA-TRIM21Δ252-476 (from UniProt P19474 1-251) (domain or fragment)	no binding	–
HA-tagged TRIM21 full-length (from UniProt P19474 1-475)	binds	–

The remaining lines, values ahead:

binding [1]	binding [2]	Substance
binds	–	HA-TRIM21Δ287-334 (from UniProt P19474 1-475) (domain or fragment)
binds	–	HA-TRIM21Δ334-476 (from UniProt P19474 1-333) (domain or fragment)
–	binds	TRIM21 (from UniProt P19474 1-475)

Reference: publication PMC8683478
